Assay results reported in publication PMC11145805.
Results are given in words; binding and its absence hold for the method and conditions named. In cells and extracts the contact can be indirect. Some entries that bind do so weakly or less than the wild type. For part of these data: Sequences can lack the tags named with a protein.

Protein sequences, listed by entry. Tags and fused reporters are not part of them. Lines headed by an entry give the natural chain unless they say otherwise; changes in a name come on top.
UniProt Q96PU5: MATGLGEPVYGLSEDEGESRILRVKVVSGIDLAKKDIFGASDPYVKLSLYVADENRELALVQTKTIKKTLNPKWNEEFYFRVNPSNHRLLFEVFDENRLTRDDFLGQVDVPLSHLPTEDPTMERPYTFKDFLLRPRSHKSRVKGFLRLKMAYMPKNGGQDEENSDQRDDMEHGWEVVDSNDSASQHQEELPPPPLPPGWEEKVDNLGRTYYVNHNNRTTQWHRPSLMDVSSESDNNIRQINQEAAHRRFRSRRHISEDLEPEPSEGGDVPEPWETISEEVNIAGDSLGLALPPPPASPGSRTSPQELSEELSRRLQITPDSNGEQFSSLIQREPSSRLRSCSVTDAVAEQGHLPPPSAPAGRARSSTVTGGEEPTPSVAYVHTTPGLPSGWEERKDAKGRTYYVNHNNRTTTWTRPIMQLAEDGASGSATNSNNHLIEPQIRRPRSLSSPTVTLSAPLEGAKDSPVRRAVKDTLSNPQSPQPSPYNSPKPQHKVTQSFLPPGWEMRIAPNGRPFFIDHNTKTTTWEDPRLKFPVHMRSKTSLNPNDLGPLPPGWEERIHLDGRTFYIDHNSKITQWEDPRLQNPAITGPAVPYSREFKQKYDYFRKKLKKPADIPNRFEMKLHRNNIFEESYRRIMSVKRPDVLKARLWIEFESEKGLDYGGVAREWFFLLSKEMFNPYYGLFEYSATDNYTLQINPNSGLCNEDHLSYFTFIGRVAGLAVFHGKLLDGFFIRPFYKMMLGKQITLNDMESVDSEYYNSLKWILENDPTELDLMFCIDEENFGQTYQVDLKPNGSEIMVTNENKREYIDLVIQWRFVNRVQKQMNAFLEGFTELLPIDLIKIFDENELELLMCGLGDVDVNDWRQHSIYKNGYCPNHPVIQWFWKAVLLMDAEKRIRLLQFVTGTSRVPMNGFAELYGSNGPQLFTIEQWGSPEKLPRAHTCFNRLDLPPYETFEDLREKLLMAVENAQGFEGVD

Columns and labels:
[1] = molecular target: GST-ITGB4 full-length (Full: 1-1822) (UniProt P16144); assay: co-IP; ECA109 cells co-transfected with GST-ITGB4 and Flag-NEDD4L fragments; GST antibody precipitates ITGB4, NEDD4L fragments detected with Flag antibody by Western blot
[2] = molecular target: Flag-NEDD4L full-length (Full: 1-975) (UniProt Q96PU5); assay: co-IP; ECA109 cells co-transfected with Flag-NEDD4L and GST-ITGB4 fragments; Flag antibody precipitates NEDD4L, ITGB4 fragments detected with GST antibody by Western blot

Molecule: Flag-NEDD4L HECT fragment (HECT: 640-975) (from UniProt Q96PU5 640-975) (domain or fragment)
- binding [1]: binds

Molecule: Flag-NEDD4L WW fragment (WW: 193-581) (from UniProt Q96PU5 193-581) (domain or fragment)
- binding [1]: no binding

Molecule: Flag-NEDD4L C2 fragment (C2: 4-126) (from UniProt Q96PU5 4-126) (domain or fragment)
- binding [1]: no binding

B1: GST-ITGB4 Galx-β fragment (Galx-β: 740-1129) (domain or fragment, UniProt P16144 740-1129)
chain: KACLALLPCCNRGHMVGFKEDHYMLRENLMASDHLDTPMLRSGNLKGRDVVRWKVTNNMQRPGFATHAASINPTELVPYGLSLRLARLCTENLLKPDTRECAQLRQEVEENLNEVYRQISGVHKLQQTKFRQQPNAGKKQDHTIVDTVLMAPRSAKPALLKLTEKQVEQRAFHDLKVAPGYYTLTADQDARGMVEFQEGVELVDVRVPLFIRPEDDDEKQLLVEAIDVPAGTATLGRRLVNITIIKEQARDVVSFEQPEFSVSRGDQVARIPVIRRVLDGGKSQVSYRTQDGTAQGNRDYIPVEGELLFQPGEAWKELQVKLLELQEVDSLLRGRQVRRFHVQLSNPKFGAHLGQPHSTTIIIRDPDELDRSFTSQMLSSQPPPHGDLGA
- binding [2]: binds

B2: GST-ITGB4 Fnll-1 and Fnll-2 fragment (1129-1426) (domain or fragment, UniProt P16144 1129-1426)
chain: APQNPNAKAAGSRKIHFNWLPPSGKPMGYRVKYWIQGDSESEAHLLDSKVPSVELTNLYPYCDYEMKVCAYGAQGEGPYSSLVSCRTHQEVPSEPGRLAFNVVSSTVTQLSWAEPAETNGEITAYEVCYGLVNDDNRPIGPMKKVLVDNPKNRMLLIENLRESQPYRYTVKARNGAGWGPEREAIINLATQPKRPMSIPIIPDIPIVDAQSGEDYDSFLMYSDDVLRSPSGSQRPSVSDDTGCGWKFEPLLGEELDLRRVTWRLPPELIPRLSASSGRSSDAEAPHGPPDDGGAGGKG
- binding [2]: no binding

B3: GST-ITGB4 Fnll-3 and Fnll-4 fragment (1426-1822) (domain or fragment, UniProt P16144 1426-1822)
chain: GGSLPRSATPGPPGEHLVNGRMDFAFPGSTNSLHRMTTTSAAAYGTHLSPHVPHRVLSTSSTLTRDYNSLTRSEHSHSTTLPRDYSTLTSVSSHDSRLTAGVPDTPTRLVFSALGPTSLRVSWQEPRCERPLQGYSVEYQLLNGGELHRLNIPNPAQTSVVVEDLLPNHSYVFRVRAQSQEGWGREREGVITIESQVHPQSPLCPLPGSAFTLSTPSAPGPLVFTALSPDSLQLSWERPRRPNGDIVGYLVTCEMAQGGGPATAFRVDGDSPESRLTVPGLSENVPYKFKVQARTTEGFGPEREGIITIESQDGGPFPQLGSRAGLFQHPLQSEYSSITTTHTSATEPFLVDGLTLGAQHLEAGGSLTRHVTQEFVSRTLTTSGTLSTHMDQQFFQT
- binding [2]: no binding
